# Source: the supplement of paper PMC8728848
# The other results are listed elsewhere or left out.
# B1: Codakine (Codakia orbicularis), Q3KVL7_9BIVA (protein)
# chain: MKILVAVFLVLVVVGTAAAGCPDGWTQFLDLCYIYQSAKASWASAQSSCQALGGILAEPDTACENEVLIHMCRENGDAGSFGPWLGGQKVGGAWQWSSSGAAFDYLRWGPNEPNNSGGNEDCLHYNWLSWNDLRCHYQASYLCQRAAE
# Key:
# Experiment in all cases: glycan array binding signal (z-score within array); higher = stronger binding
# Details in all cases: glycan notation: IUPAC condensed, linker removed
# [1] = molecular target: Neu5Ac(a2-3)Gal(b1-3)[Fuc(a1-4)]GlcNAc(b1-3)Gal(b1-4)[Fuc(a1-3)]GlcNAc
# Method in brief: (§1)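 Columns mapping to the same glycan were averaged after glycan names were converted to IUPAC-condensed notation. The data come from 3228 arrays in the Consortium for Functional Glycomics database, limited to those with an available protein sequence. Binding is reported as a within-array Z-score averaged across arrays of one protein sequence and across linkers.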
# [2] = molecular target: Neu5Ac(a2-3)Gal(b1-3)[Neu5Ac(a2-3)Gal(b1-4)]GlcNAc
# Method in brief: as §1
# [3] = molecular target: Neu5Ac(a2-3)Gal(b1-3)[Neu5Ac(a2-6)]GalNAc
# Method in brief: as §1
# Neu5Ac(a2-3)Gal(b1-4)Glc = molecular target: Neu5Ac(a2-3)Gal(b1-4)Glc
# Method in brief: as §1
# [4] = molecular target: Neu5Ac(a2-3)Gal(b1-4)GlcNAc
# Method in brief: as §1
# [5] = molecular target: Neu5Ac(a2-3)Gal(b1-4)GlcNAc(b1-2)Man(a1-3)[GlcNAc(b1-2)Man(b1-4)GlcNAc(b1-2)Man(a1-6)]Man(b1-4)GlcNAc(b1-4)GlcNAc
# Method in brief: as §1
# [6] = molecular target: Neu5Ac(a2-3)Gal(b1-4)GlcNAc(b1-2)Man(a1-3)[Neu5Ac(a2-6)Gal(b1-4)GlcNAc(b1-2)Man(a1-6)]Man(b1-4)GlcNAc(b1-4)GlcNAc
# Method in brief: as §1
# [7] = molecular target: Neu5Ac(a2-3)Gal(b1-4)GlcNAc(b1-3)Gal(b1-3)GlcNAc
# Method in brief: as §1
# [8] = molecular target: Neu5Ac(a2-3)Gal(b1-4)GlcNAc(b1-3)Gal(b1-4)GlcNAc
# Method in brief: as §1
# [9] = molecular target: Neu5Ac(a2-3)Gal(b1-4)GlcNAc(b1-3)Gal(b1-4)GlcNAc(b1-3)Gal(b1-4)GlcNAc
# Method in brief: as §1
# [10] = molecular target: Neu5Ac(a2-3)Gal(b1-4)GlcNAc(b1-3)Gal(b1-4)[Fuc(a1-3)]GlcNAc
# Method in brief: as §1
# [11] = molecular target: Neu5Ac(a2-3)Gal(b1-4)GlcNAc(b1-6)[Gal(b1-3)]GalNAc
# Method in brief: as §1
# [12] = molecular target: Neu5Ac(a2-3)Gal(b1-4)GlcNAc(b1-6)[Neu5Ac(a2-3)Gal(b1-3)]GalNAc
# Method in brief: as §1
# [13] = molecular target: Neu5Ac(a2-3)Gal(b1-4)GlcNAc6S
# Method in brief: as §1
# [14] = molecular target: Neu5Ac(a2-3)Gal(b1-4)[Fuc(a1-3)]GlcNAc
# Method in brief: as §1
# [15] = molecular target: Neu5Ac(a2-3)Gal(b1-4)[Fuc(a1-3)]GlcNAc(b1-3)Gal
# Method in brief: as §1
# [16] = molecular target: Neu5Ac(a2-3)Gal(b1-4)[Fuc(a1-3)]GlcNAc(b1-3)Gal(b1-4)GlcNAc
# Method in brief: as §1
# [17] = molecular target: Neu5Ac(a2-3)Gal(b1-4)[Fuc(a1-3)]GlcNAc(b1-3)Gal(b1-4)[Fuc(a1-3)]GlcNAc(b1-3)Gal(b1-4)[Fuc(a1-3)]GlcNAc
# Method in brief: as §1
# [18] = molecular target: Neu5Ac(a2-3)Gal(b1-4)[Fuc(a1-3)]GlcNAc(b1-6)[Gal(b1-3)]GalNAc
# Method in brief: as §1
# [19] = molecular target: Neu5Ac(a2-3)Gal(b1-4)[Fuc(a1-3)]GlcNAc6S
# Method in brief: as §1
# [20] = molecular target: Neu5Ac(a2-3)Gal6S(b1-4)GlcNAc
# Method in brief: as §1
# [21] = molecular target: Neu5Ac(a2-3)Gal6S(b1-4)[Fuc(a1-3)]GlcNAc
# Method in brief: as §1
# Neu5Ac(a2-3)GalNAc = molecular target: Neu5Ac(a2-3)GalNAc
# Method in brief: as §1
# [22] = molecular target: Neu5Ac(a2-3)GalNAc(b1-4)GlcNAc
# Method in brief: as §1
# [23] = molecular target: Neu5Ac(a2-3)[GalNAc(b1-4)]Gal(b1-4)Glc
# Method in brief: as §1
# [24] = molecular target: Neu5Ac(a2-3)[GalNAc(b1-4)]Gal(b1-4)GlcNAc
# Method in brief: as §1
# [25] = molecular target: Neu5Ac(a2-3)[Neu5Ac(a2-6)]GalNAc
# Method in brief: as §1
# Neu5Ac(a2-6)Gal = molecular target: Neu5Ac(a2-6)Gal
# Method in brief: as §1
# Neu5Ac(a2-6)Gal(b1-4)Glc = molecular target: Neu5Ac(a2-6)Gal(b1-4)Glc
# Method in brief: as §1
# [26] = molecular target: Neu5Ac(a2-6)Gal(b1-4)GlcNAc
# Method in brief: as §1
# [27] = molecular target: Neu5Ac(a2-6)Gal(b1-4)GlcNAc(b1-2)Man(a1-3)[Gal(b1-4)GlcNAc(b1-2)Man(a1-6)]Man(b1-4)GlcNAc(b1-4)GlcNAc
# Method in brief: as §1
# [28] = molecular target: Neu5Ac(a2-6)Gal(b1-4)GlcNAc(b1-2)Man(a1-3)[GlcNAc(b1-2)Man(a1-6)]Man(b1-4)GlcNAc(b1-4)GlcNAc
# Method in brief: as §1
# [29] = molecular target: Neu5Ac(a2-6)Gal(b1-4)GlcNAc(b1-2)Man(a1-3)[GlcNAc(b1-2)Man(b1-4)GlcNAc(b1-2)Man(a1-6)]Man(b1-4)GlcNAc(b1-4)GlcNAc
# Method in brief: as §1
# [30] = molecular target: Neu5Ac(a2-6)Gal(b1-4)GlcNAc(b1-2)Man(a1-3)[Neu5Ac(a2-6)Gal(b1-4)GlcNAc(b1-2)Man(a1-6)]Man(b1-4)GlcNAc(b1-4)GlcNAc
# Method in brief: as §1
# [31] = molecular target: Neu5Ac(a2-6)Gal(b1-4)GlcNAc(b1-2)Man(a1-6)[Gal(b1-4)GlcNAc(b1-2)Man(a1-3)]Man(b1-4)GlcNAc(b1-4)GlcNAc
# Method in brief: as §1
# [32] = molecular target: Neu5Ac(a2-6)Gal(b1-4)GlcNAc(b1-2)Man(a1-6)[GlcNAc(b1-2)Man(a1-3)]Man(b1-4)GlcNAc(b1-4)GlcNAc
# Method in brief: as §1
# [33] = molecular target: Neu5Ac(a2-6)Gal(b1-4)GlcNAc(b1-3)Gal(b1-4)GlcNAc
# Method in brief: as §1
# [34] = molecular target: Neu5Ac(a2-6)Gal(b1-4)GlcNAc(b1-3)Gal(b1-4)[Fuc(a1-3)]GlcNAc(b1-3)Gal(b1-4)[Fuc(a1-3)]GlcNAc
# Method in brief: as §1
# [35] = molecular target: Neu5Ac(a2-6)Gal(b1-4)GlcNAc6S
# Method in brief: as §1
# Neu5Ac(a2-6)GalNAc = molecular target: Neu5Ac(a2-6)GalNAc
# Method in brief: as §1
# [36] = molecular target: Neu5Ac(a2-6)GalNAc(b1-4)GlcNAc
# Method in brief: as §1
# Neu5Ac(a2-8)Neu5Ac = molecular target: Neu5Ac(a2-8)Neu5Ac
# Method in brief: as §1
# [37] = molecular target: Neu5Ac(a2-8)Neu5Ac(a2-3)Gal(b1-4)Glc
# Method in brief: as §1
# [38] = molecular target: Neu5Ac(a2-8)Neu5Ac(a2-3)[GalNAc(b1-4)]Gal(b1-4)Glc
# Method in brief: as §1
# [39] = molecular target: Neu5Ac(a2-8)Neu5Ac(a2-8)Neu5Ac
# Method in brief: as §1
# [40] = molecular target: Neu5Ac(a2-8)Neu5Ac(a2-8)Neu5Ac(a2-3)Gal(b1-4)Glc
# Method in brief: as §1
# [41] = molecular target: Neu5Ac(a2-8)Neu5Ac(a2-8)Neu5Ac(a2-3)[GalNAc(b1-4)]Gal(b1-4)Glc
# Method in brief: as §1
# [42] = molecular target: Neu5Ac(a2-8)Neu5Ac(a2-8)Neu5Ac(a2-8)Neu5Ac(a2-3)[GalNAc(b1-4)]Gal(b1-4)Glc
# Method in brief: as §1
# [43] = molecular target: Neu5Ac(b2-6)Gal(b1-4)GlcNAc
# Method in brief: as §1
# Neu5Ac(b2-6)GalNAc = molecular target: Neu5Ac(b2-6)GalNAc
# Method in brief: as §1
# [44] = molecular target: Neu5Ac9Ac(a2-6)Gal(b1-4)GlcNAc
# Method in brief: as §1
# [45] = molecular target: Neu5Gc(a2-3)Gal(b1-3)GlcNAc
# Method in brief: as §1
# [46] = molecular target: Neu5Gc(a2-3)Gal(b1-3)[Fuc(a1-4)]GlcNAc
# Method in brief: as §1
# Neu5Gc(a2-3)Gal(b1-4)Glc = molecular target: Neu5Gc(a2-3)Gal(b1-4)Glc
# Method in brief: as §1
# [47] = molecular target: Neu5Gc(a2-3)Gal(b1-4)GlcNAc
# Method in brief: as §1
# [48] = molecular target: Neu5Gc(a2-3)Gal(b1-4)[Fuc(a1-3)]GlcNAc
# Method in brief: as §1
# [49] = molecular target: Neu5Gc(a2-6)Gal(b1-4)GlcNAc
# Method in brief: as §1
# Neu5Gc(a2-6)GalNAc = molecular target: Neu5Gc(a2-6)GalNAc
# Method in brief: as §1
# [50] = molecular target: Neu5Gc(b2-6)Gal(b1-4)GlcNAc
# Method in brief: as §1
binder,measurement,setting,value
B1,glycan array binding signal (z-score),[1],-0.227
same,glycan array binding signal (z-score),[2],-0.333
same,glycan array binding signal (z-score),[3],-0.148
same,glycan array binding signal (z-score),Neu5Ac(a2-3)Gal(b1-4)Glc,-0.133
same,glycan array binding signal (z-score),[4],-0.28
same,glycan array binding signal (z-score),[5],4.82
same,glycan array binding signal (z-score),[6],4.57
same,glycan array binding signal (z-score),[7],-0.286
same,glycan array binding signal (z-score),[8],-0.181
same,glycan array binding signal (z-score),[9],-0.305
same,glycan array binding signal (z-score),[10],-0.293
same,glycan array binding signal (z-score),[11],-0.241
same,glycan array binding signal (z-score),[12],-0.414
same,glycan array binding signal (z-score),[13],-0.198
same,glycan array binding signal (z-score),[14],-0.252
same,glycan array binding signal (z-score),[15],-0.33
same,glycan array binding signal (z-score),[16],-0.213
same,glycan array binding signal (z-score),[17],-0.359
same,glycan array binding signal (z-score),[18],-0.01
same,glycan array binding signal (z-score),[19],-0.196
same,glycan array binding signal (z-score),[20],-0.279
same,glycan array binding signal (z-score),[21],-0.201
same,glycan array binding signal (z-score),Neu5Ac(a2-3)GalNAc,-0.267
same,glycan array binding signal (z-score),[22],-0.254
same,glycan array binding signal (z-score),[23],-0.329
same,glycan array binding signal (z-score),[24],-0.264
same,glycan array binding signal (z-score),[25],-0.367
same,glycan array binding signal (z-score),Neu5Ac(a2-6)Gal,-0.246
same,glycan array binding signal (z-score),Neu5Ac(a2-6)Gal(b1-4)Glc,-0.198
same,glycan array binding signal (z-score),[26],-0.224
same,glycan array binding signal (z-score),[27],2.78
same,glycan array binding signal (z-score),[28],2.87
same,glycan array binding signal (z-score),[29],2.54
same,glycan array binding signal (z-score),[30],2.86
same,glycan array binding signal (z-score),[31],2.85
same,glycan array binding signal (z-score),[32],2.17
same,glycan array binding signal (z-score),[33],-0.164
same,glycan array binding signal (z-score),[34],-0.173
same,glycan array binding signal (z-score),[35],-0.121
same,glycan array binding signal (z-score),Neu5Ac(a2-6)GalNAc,-0.018
same,glycan array binding signal (z-score),[36],-0.245
same,glycan array binding signal (z-score),Neu5Ac(a2-8)Neu5Ac,-0.247
same,glycan array binding signal (z-score),[37],-0.241
same,glycan array binding signal (z-score),[38],-0.232
same,glycan array binding signal (z-score),[39],-0.227
same,glycan array binding signal (z-score),[40],-0.319
same,glycan array binding signal (z-score),[41],-0.205
same,glycan array binding signal (z-score),[42],0.202
same,glycan array binding signal (z-score),[43],-0.336
same,glycan array binding signal (z-score),Neu5Ac(b2-6)GalNAc,-0.238
same,glycan array binding signal (z-score),[44],-0.356
same,glycan array binding signal (z-score),[45],-0.272
same,glycan array binding signal (z-score),[46],-0.265
same,glycan array binding signal (z-score),Neu5Gc(a2-3)Gal(b1-4)Glc,-0.184
same,glycan array binding signal (z-score),[47],-0.291
same,glycan array binding signal (z-score),[48],-0.234
same,glycan array binding signal (z-score),[49],-0.289
same,glycan array binding signal (z-score),Neu5Gc(a2-6)GalNAc,-0.317
same,glycan array binding signal (z-score),[50],-0.176
